Test results taken from PMC4336329 (PLoS ONE, 2015).
The whole screen tested about 310,000 compounds, of which about 14,000 (4.5%) showed an effect of 50% or more. The effect is printed as a negative number. Some of the results follow.

Target: human ether-à-go-go-related gene (hERG) potassium channel (human, UniProt Q12809)
Test: primary screen, population patch clamp on CHO cells stably expressing hERG
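Further: peak tail current of the secondary pulse compared with the same well before compound.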

human ether-à-go-go-related gene (hERG) potassium channel, sequence (Q12809 whole entry, looked up): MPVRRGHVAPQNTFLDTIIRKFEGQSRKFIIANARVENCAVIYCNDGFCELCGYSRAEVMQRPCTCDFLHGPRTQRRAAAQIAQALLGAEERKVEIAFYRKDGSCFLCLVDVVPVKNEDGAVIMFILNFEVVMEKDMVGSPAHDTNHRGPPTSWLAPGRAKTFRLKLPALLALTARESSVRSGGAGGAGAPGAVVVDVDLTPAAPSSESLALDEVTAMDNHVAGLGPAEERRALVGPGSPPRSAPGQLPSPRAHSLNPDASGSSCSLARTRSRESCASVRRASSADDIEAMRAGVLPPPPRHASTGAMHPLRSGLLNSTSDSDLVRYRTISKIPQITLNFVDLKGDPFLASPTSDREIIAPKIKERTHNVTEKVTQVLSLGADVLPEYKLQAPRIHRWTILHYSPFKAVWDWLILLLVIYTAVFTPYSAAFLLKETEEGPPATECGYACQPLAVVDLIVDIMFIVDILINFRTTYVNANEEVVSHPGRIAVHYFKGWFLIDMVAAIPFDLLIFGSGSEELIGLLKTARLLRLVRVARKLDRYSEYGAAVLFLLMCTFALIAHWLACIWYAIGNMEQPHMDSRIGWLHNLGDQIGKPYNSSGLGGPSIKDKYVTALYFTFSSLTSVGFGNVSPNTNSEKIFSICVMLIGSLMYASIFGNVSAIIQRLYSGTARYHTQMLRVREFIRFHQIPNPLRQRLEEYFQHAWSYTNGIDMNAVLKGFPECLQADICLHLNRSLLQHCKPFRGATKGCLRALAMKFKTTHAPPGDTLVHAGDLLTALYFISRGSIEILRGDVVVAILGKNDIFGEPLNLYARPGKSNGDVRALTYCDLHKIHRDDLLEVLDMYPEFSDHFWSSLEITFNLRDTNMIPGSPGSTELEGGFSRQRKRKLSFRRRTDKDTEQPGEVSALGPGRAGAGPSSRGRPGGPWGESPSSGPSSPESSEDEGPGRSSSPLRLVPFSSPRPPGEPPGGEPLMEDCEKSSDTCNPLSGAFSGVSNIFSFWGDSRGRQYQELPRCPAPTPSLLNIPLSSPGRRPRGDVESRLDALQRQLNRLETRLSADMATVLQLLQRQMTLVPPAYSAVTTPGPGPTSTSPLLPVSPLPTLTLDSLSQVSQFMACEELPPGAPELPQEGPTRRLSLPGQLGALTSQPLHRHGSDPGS

| SMILES | hERG current change (%, negative = inhibition) at 10uM |
| --- | --- |
| CCOC(=O)C(=O)N1CCN(c2cc3c(cc2[N+](=O)[O-])n(C)c(=O)n3C)CC1 | -24.2% |
| COc1ccccc1N1CCN(/N=C/c2cccc(Cl)c2)CC1 | 15.6% |
| CNC(=O)CCn1nc(-c2ccc(Cl)cc2)c2ccccc2c1=O | -15.7% |
| Cc1ccc([N+](=O)[O-])cc1NC(=O)CCc1ccccc1 | 3.43% |
| CC(C)[C@H](N)c1cn([C@@H](CO)C(=O)N2CCNCC2)nn1 | 10.8% |
| CCOC(=O)COc1ccc(Cl)cc1C1NC(=O)NC(C)=C1C(C)=O (stereo not shown) | 10.1% |
| COC(=O)C1=C(C)NC2=C(C(=O)CC(C)(C)C2)C1c1ccccn1 (stereo not shown) | -1.57% |
| CN1CCN(C(=O)CCN2C(=O)/C(=C\c3ccccc3F)SC2=S)CC1 | 5.03% |
| c1ccc(-n2c(SCc3ccncc3)nnc2-c2ccco2)cc1 | -25% |
| COc1ccc(S(=O)(=O)NNC(=O)c2cc3cc4ccccc4nc3s2)cc1 | 5.94% |
| CCN(CC)C(=O)NC1CC(=O)N(c2ccc(OC)cc2)C1 (stereo not shown) | 16.3% |
| COc1cccc(NC(=O)Cc2ccc(C)cc2)c1 | -1.94% |
| COC(=O)c1cc(NS(=O)(=O)c2ccc(N3CCOCC3)c([N+](=O)[O-])c2)cc(C(=O)OC)c1 | 9.23% |
| CCCCN(CC)Cc1ccc(CNC(=O)Nc2ccccc2)o1 | -9.65% |
| CC(C)(C)c1ccc(S(=O)(=O)N2CCc3nc4ccccc4c(C(=O)O)c3C2)cc1 | 16.1% |
| COc1ccccc1C(=O)NCCC(=O)NCCOc1ccccc1 | 8.24% |
| COc1ccc(/C=N/Nc2nc(N3CCCCC3)nc(N3CCCCC3)n2)cc1[N+](=O)[O-] | -11.3% |
| COc1ccc(Oc2ccccc2/C=C/C(=O)O)cc1 | 15.7% |
| O=C(CN1CCN(c2cccc(Cl)c2)CC1)Nc1nccs1 | -31.5% |
| CC(NC(=O)c1cccs1)c1n[nH]c(=S)n1C (stereo not shown) | 12.9% |
| CCOC(=O)CC(=O)CSc1nccc(-c2cccnc2)n1 | 4.57% |
| CCOc1ccccc1CNc1nc2ccccc2n1C | -20.6% |
| O=C(NCC(=O)N1CCN(S(=O)(=O)c2ccccc2)CC1)c1ccc2ccccc2c1 | -53.5% |
| CCOC(=O)[C@H]1[C@H]2COc3ccccc3[C@@H]2N2C(=O)c3cc(F)c(F)cc3NC(=O)[C@@]12C | -30.9% |
| CC(C)(C)c1cc(NS(=O)(=O)c2ccc(Br)s2)no1 | -1.48% |
| O=c1[nH]c(C2CCN(S(=O)(=O)c3ccccc3F)CC2)nc2c1nnn2Cc1ccc(OC(F)(F)F)cc1 | 26.1% |
| Cc1cc(Cl)ccc1OCCCC(=O)N/N=C/c1cccc([N+](=O)[O-])c1 | 22.2% |
| CCOc1ccc(S(=O)(=O)N2CCCC(C(=O)NCc3ccncc3)C2)cc1C (stereo not shown) | 1.92% |

| SMILES | hERG current change (%, negative = inhibition) at 10uM |
| --- | --- |
| COC(=O)C(c1ccccc1)N(Cc1cccc(CN(C(C(=O)OC)c2ccccc2)S(C)(=O)=O)c1)S(C)(=O)=O (stereo not shown) | -0.726% |
| CNC(=O)C1CC(=O)N(c2ccc(C)cc2)C1 (stereo not shown) | -2.55% |
| COc1ccccc1NC(=O)CN1CCC(n2c(C)nc3cc(F)ccc32)CC1 | -72.2% |
| Cn1cccc1/C=N/NC(=O)Cc1cccc2ccccc12 | -15.8% |
| COc1ccc(C(C)(C)NC(=O)C2CCC(=O)N(CCCN3CCCC3=O)C2)cc1 (stereo not shown) | 10.3% |
| Cl.OC(COc1ccc(Cl)cc1)CN1CCN(c2ccccc2)CC1 (stereo not shown) | -29.7% |
| O=S(=O)(c1cccc(Cl)c1Cl)N1CCCCC1 | -10.4% |
| CCOC(=O)C(NC(=O)CC)(Nc1ccc(S(N)(=O)=O)cc1)C(F)(F)F (stereo not shown) | 8.89% |
| O=C(c1cc(-c2ccco2)on1)N1CCN(C(c2ccccc2)c2ccccc2)CC1 | -6.24% |
| COc1ccc(NC(=S)N2CCN(Cc3ccccc3)CC2)cc1 | 0.401% |
| CCOc1cc(S(=O)(=O)n2cc(-c3ccc(F)cc3)c(N)n2)cc(OCC)c1OCC | 17.1% |
| COc1cccc(NC(=O)c2oc3ccccc3c2NC(=O)C2CC2)c1 | -4.14% |
| CSCCC(NC(=O)C12CC3CC(CC(C3)C1)C2)C(=O)OCC(=O)c1ccc(Cl)cc1 (stereo not shown) | 9.01% |
| CCCCCC/C=N/Nc1nnc(Cc2ccc(OC)c(OC)c2)c(=O)[nH]1 | 19.8% |
| N/C(=N\c1nc2ccccc2o1)NC(=O)c1ccccc1NC(=O)c1ccccc1 | 15.4% |
| C=CCNC(=O)C1CC(=O)N(c2ccc(OCC(=O)Nc3ccc(Cl)c(C(F)(F)F)c3)cc2)C1 (stereo not shown) | 1.44% |
| CCCCn1c(N)c(N(CC(C)C)C(=O)c2ccc(OCc3c(C)noc3C)cc2)c(=O)[nH]c1=O | 10.6% |
| CC1CCN(CC(=O)N2c3ccccc3CCc3ccccc32)CC1 | -8.38% |
| CSc1nsc(SC)c1CO | 9.55% |
| COc1ccc(OC)c(NS(=O)(=O)c2ccc(SC)cc2)c1 | -7.15% |
| C=CCn1nnnc1SCC(=O)Nc1cccc(C(F)(F)F)c1 | 9.66% |
| CCCCCCN1C(=O)C(O)=C(C(C)=O)C1c1ccc(Cl)cc1 (stereo not shown) | -5.13% |
| O=C(NCc1ccc2c(c1)OCO2)C1CCCN(C(=O)c2ccc(Cl)cc2)C1 (stereo not shown) | -34.4% |
| COc1ccc(C)cc1Nc1ccc(C(=O)O)cc1[N+](=O)[O-] | 12.8% |
| O=C1COc2ccc(C(=O)COC(=O)Cc3ccc(F)cc3)cc2N1 | -23.8% |
| COc1ccc(/C=C/C(=O)c2ccccc2O)cc1 | 9.13% |
| Cc1c(C(=O)N2CCc3ccccc3C2)oc2ccc(S(=O)(=O)N3CC(C)CC(C)C3)cc12 (stereo not shown) | -3.31% |
